From the supplement of paper PMC8512760 come the findings set out here.

Test systems include HCC-1143; HCC-1187; MDA-468; SUM-149.
Common to all, as to experiment: cell viability relative to vehicle (% of vehicle); basal-like triple-negative breast cancer lines; higher = less cytotoxic
What all share (conditions): 10 µM; 72 h

The list shows a part of the results. Repeats are few or missing, and single values can be far off.
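Also: stably firefly luciferase-GFP labeled cells in 96-well plates, viability read as luciferase photon flux after d-luciferin addition, treated wells normalized to vehicle wells, single-dose high-throughput screen.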

As for `Cl.Cl.O=C1c2c(O)ccc(O)c2C(=O)c2c(NCCNCCO)ccc(NCCNCCO)c21` [Mitoxantrone HCl], the cell viability is 24.9 in the experiment with HCC-1143, 25.1 with HCC-1187, 33.8 with MDA-468 and 31.2 in the experiment on SUM-149.

Turning to `CCOC(=O)c1c(C)n(C)c2ccc(O)cc12` [Mecarbinate], the cell viability was 73.3 in the experiment with HCC-1143, 96 in the experiment with HCC-1187, 97.4 in the experiment on MDA-468 and 97.2 in the experiment with SUM-149.

For the compound `CC1(C)SC2C(NC(=O)C(NC(=O)N3CCN(S(C)(=O)=O)C3=O)c3ccccc3)C(=O)N2C1C(=O)O.[Na]` (centres undefined) [Mezlocillin Sodium], the cell viability amounted to 71.3 in the experiment on HCC-1143, 83.6 in the experiment with HCC-1187, 103 in the experiment with MDA-468 and 110 with SUM-149.

As to `COc1cc(Nc2ncc(F)c(Nc3ccc4c(n3)N(COP(=O)(O)O)C(=O)C(C)(C)O4)n2)cc(OC)c1OC` [Fostamatinib (R788)], the cell viability in the experiment with HCC-1143 is 41; with HCC-1187 it was 49.3; with MDA-468, 37.8; in the experiment on SUM-149, 30.9.

With `COc1ccc(C=CC(=O)Nc2ccccc2C(=O)O)cc1OC` [Tranilast], the cell viability was 40.5 in the experiment on HCC-1143, 38.9 with HCC-1187, 56.2 in the experiment with MDA-468 and 136 in the experiment with SUM-149.

As for `Cc1cc(NS(=O)(=O)c2ccc(N)cc2)no1` [Sulfamethoxazole], the cell viability in the experiment on HCC-1143 came out at 134; in the experiment on HCC-1187, 98.9; in the experiment with MDA-468 it was 88.5; with SUM-149, 111.
